# Laboratory results taken from the supplement of paper PMC7826260.
# The other results are listed elsewhere or left out. Each Rep nickase domain was tested in vitro on the same pool of single strands at 3 µM enzyme and 37 °C for 1 h; the strands have 90 letters, of which the middle is given. Uncut reads are compared with the no-enzyme pool on a log2 scale; strong cutting gives strongly negative numbers. There is no active / inactive call. The scaling is to total reads, so uncut sequences can rise above 0 when many others are cut.
# Key:
# Assay in all cases: uncleaved DNA left, log2 of reads against the no-enzyme library (log2 ratio); higher = less cleavage (more negative = more Rep cleavage of the k-mer); sequences stand for … in CTCGTCCG…ACCGGAGA
# [1] = tested on: T1, Rep nickase domain of Muscovy duck circovirus
# T1 sequence (Rep 1-111, printed without the tag): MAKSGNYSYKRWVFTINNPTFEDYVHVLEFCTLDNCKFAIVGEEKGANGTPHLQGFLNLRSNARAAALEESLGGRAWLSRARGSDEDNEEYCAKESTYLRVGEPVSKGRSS
# Procedure: (§1)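 A pool of 90-nt single-stranded DNAs with seven random bases just before the constant AC of the nick site (name = the seven bases) was cut by 3 µM recombinant His6-SUMO-tagged Rep nickase domain (300 nM DNA, 50 mM HEPES pH 8.0, 50 mM NaCl, 1 mM MnCl2, 1 h, 37 °C, three replicates). Uncut DNA was amplified and sequenced.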
# [2] = tested on: T2, Rep nickase domain of banana bunchy top virus
# T2 sequence (Rep 1-94, printed without the tag): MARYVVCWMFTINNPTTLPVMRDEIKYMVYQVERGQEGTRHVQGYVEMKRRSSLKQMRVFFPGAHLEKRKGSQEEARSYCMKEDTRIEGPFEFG
# Procedure: as §1
# [3] = tested on: T3, Rep nickase domain of cabbage leaf curl virus
# T3 sequence (Rep 1-116, printed without the tag): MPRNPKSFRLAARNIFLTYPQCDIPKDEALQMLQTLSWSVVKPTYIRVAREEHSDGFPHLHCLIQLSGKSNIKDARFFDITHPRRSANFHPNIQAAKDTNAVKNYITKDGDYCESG
# Procedure: as §1
# [4] = tested on: T4, Rep nickase domain of chickpea chlorotic dwarf virus
# T4 sequence (Rep 1-124, printed without the tag): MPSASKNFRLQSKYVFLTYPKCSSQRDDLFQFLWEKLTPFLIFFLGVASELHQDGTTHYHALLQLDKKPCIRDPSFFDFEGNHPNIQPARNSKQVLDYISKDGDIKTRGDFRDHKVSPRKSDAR
# Procedure: as §1
# [5] = tested on: T5, Rep nickase domain of faba bean necrotic yellows virus
# T5 sequence (Rep 1-98, printed without the tag): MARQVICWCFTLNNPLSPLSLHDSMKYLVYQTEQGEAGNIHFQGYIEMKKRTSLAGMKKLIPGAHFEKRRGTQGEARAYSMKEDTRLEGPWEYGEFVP
# Procedure: as §1
# [6] = tested on: T6, Rep nickase domain of maize striate mosaic virus
# T6 sequence (Rep 1-117, printed without the tag): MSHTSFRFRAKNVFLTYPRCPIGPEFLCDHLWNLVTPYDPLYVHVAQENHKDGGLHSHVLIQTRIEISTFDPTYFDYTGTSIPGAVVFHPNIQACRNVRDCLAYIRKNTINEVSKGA
# Procedure: as §1
# [7] = tested on: T7, Rep nickase domain of porcine circovirus 2
# T7 sequence (Rep 2-116, printed without the tag): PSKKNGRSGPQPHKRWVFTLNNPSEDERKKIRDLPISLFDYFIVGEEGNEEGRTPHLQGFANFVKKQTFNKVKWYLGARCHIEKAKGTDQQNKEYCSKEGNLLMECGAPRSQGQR
# Procedure: as §1
# [8] = tested on: T8, Rep nickase domain of tomato golden mosaic virus
# T8 sequence (Rep 1-124, printed without the tag): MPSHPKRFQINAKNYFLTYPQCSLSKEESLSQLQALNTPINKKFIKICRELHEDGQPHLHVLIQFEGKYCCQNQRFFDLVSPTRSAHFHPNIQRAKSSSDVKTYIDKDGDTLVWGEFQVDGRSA
# Procedure: as §1
# [9] = tested on: T9, Rep nickase domain of tomato yellow leaf curl virus
# T9 sequence (Rep 1-136, printed without the tag): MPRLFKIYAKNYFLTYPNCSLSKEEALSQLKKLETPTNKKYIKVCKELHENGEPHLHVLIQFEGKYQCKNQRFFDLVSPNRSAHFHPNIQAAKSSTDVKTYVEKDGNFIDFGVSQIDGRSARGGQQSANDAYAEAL
# Procedure: as §1
# [10] = tested on: T10, Rep nickase domain of wheat dwarf virus
# T10 sequence (Rep 1-137, printed without the tag): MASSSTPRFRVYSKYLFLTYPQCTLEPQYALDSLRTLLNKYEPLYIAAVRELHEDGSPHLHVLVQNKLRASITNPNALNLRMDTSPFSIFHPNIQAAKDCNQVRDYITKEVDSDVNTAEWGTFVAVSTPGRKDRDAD
# Procedure: as §1
Sequence,uncleaved DNA left (log2) [1],uncleaved DNA left (log2) [2],uncleaved DNA left (log2) [3],uncleaved DNA left (log2) [4],uncleaved DNA left (log2) [5],uncleaved DNA left (log2) [6],uncleaved DNA left (log2) [7],uncleaved DNA left (log2) [8],uncleaved DNA left (log2) [9],uncleaved DNA left (log2) [10]
TCCCGGT,-0.0356,-0.117,0.391,0.759,-0.0727,1.3,0.041,0.089,-0.0338,-0.109
ACATGGT,-0.276,0.0158,-0.289,-0.556,0.017,-0.673,-0.5,0.0959,0.00706,0.0348
GACACGG,-0.0914,0.0603,0.416,1.44,-0.027,1.87,0.0997,0.034,-0.136,0.0841
GTTGCGC,0.0448,-0.108,-0.753,0.317,0.0244,-0.536,0.133,0.0101,0.0146,-0.156
ATAGTTC,-0.00337,-0.0855,-0.129,-1.85,-0.047,-0.728,-0.0514,-0.00971,-0.162,-0.37
AAACAGC,-0.133,-0.0227,-0.295,-0.874,-0.0369,-1.04,0.137,0.0352,-0.011,-0.0618
TCGACCT,-0.126,0.0252,-0.00336,0.00625,-0.0565,0.675,-0.137,-0.0146,0.000405,0.0264
CGCATCC,0.0054,0.0189,0.0203,-0.139,0.0129,-0.439,0.0648,-0.0155,0.0368,-0.104
TCCCATC,-0.00683,-0.00221,0.0843,-0.108,-0.0231,-0.558,0.0289,0.0714,0.151,0.107
TGACTCC,0.0265,-0.0748,0.3,0.454,0.01,0.981,-0.0321,-0.049,0.0442,0.0284
AGAAACT,0.0441,0.0344,0.214,-1.63,0.0287,0.594,-0.203,0.0161,-0.0765,0.0192
ATTGGGT,-0.0266,0.0177,0.0569,0.985,-0.0513,0.877,0.112,0.0473,-0.0764,-0.125
CACCCGC,-0.23,-0.0556,-0.434,-0.791,-0.072,-0.99,-0.313,-0.193,0.0162,-0.0993
TTCACGC,0.128,-0.0149,0.192,-0.312,0.0653,-0.217,0.136,-0.0144,-0.00997,0.0427
GAATGCA,-0.179,-0.0157,-0.537,-0.95,0.0317,-0.856,-0.717,-0.0285,0.116,-0.0821
GCAATGA,0.113,0.0393,-0.0714,0.341,0.0972,-0.31,0.112,0.0205,0.0418,-0.0826
CAGGGAT,0.0103,-0.0367,0.161,1.49,-0.146,1.8,0.0455,-0.0585,-0.223,-0.0393
AGTCCAC,-0.232,-0.0469,0.098,0.09,-0.15,-0.0468,-0.0638,-0.143,-0.0301,0.0534
ACCGGAC,0.0482,0.0284,0.66,1.16,0.0546,1.64,0.193,0.00357,-0.0263,0.0376
AACGAAA,0.0201,0.0745,-0.0734,-0.35,0.0796,-0.583,-0.00499,-0.0712,0.00799,-0.0526
CATCAGC,0.0326,0.0728,-0.568,-0.682,0.111,-1.13,0.0801,-0.0056,0.161,-0.056
TCATTTG,-0.0801,0.0873,-0.58,-1.03,-0.0875,-1.36,0.116,-0.116,-0.0753,-0.202
CATGAGG,0.2,-0.0315,0.114,0.699,0.0814,-0.13,0.22,0.13,0.0262,0.104
GCGGGCG,-0.0724,0.0204,-0.572,0.0316,-0.00226,-0.321,0.114,-0.0887,0.054,-0.0832
GCAGCCC,-0.0359,-0.0928,0.0961,0.222,0.00161,-0.0573,0.168,0.0471,0.0481,0.152
CGTTAAC,-0.0666,-0.0552,-0.25,-1.28,-0.189,-0.365,0.02,-0.119,-0.0162,-0.0513
CATTTCT,-4.13,-3.97,-0.887,-3.06,-0.293,-1.37,-4.21,-0.369,-0.0776,-0.328
GGCGACG,0.0615,0.108,0.176,0.682,0.0562,1.7,0.152,0.161,0.0752,0.0586
CCCCGCC,-0.126,0.000558,0.019,-0.267,-0.0948,-0.551,-0.00563,-0.0463,-0.044,-0.197
TATACAG,0.0739,0.00652,-0.733,-1.17,0.0501,-1.1,0.205,0.0604,0.0171,0.0727
